# The whole screen tested about 310,000 compounds, of which about 18,000 (5.8%) were called active. Inconclusive means that the source gave no clear call. Such entries were picked first, then a sample of the others. The call rests on the fitted dose curve; in most records, active means well fitted inhibition curve with a large enough effect; inconclusive means small, poorly fitted or top-dose-only effect, or another doubt; inactive means no such curve, though single readings can be large or run the other way. No potency is given beside an inconclusive call; the fits are too rough.
# Experiment: Primary qHTS for delayed death inhibitors of the malarial parasite plastid, 48 hour incubation
# Settings: P. falciparum luciferase growth in erythrocytes; series mostly up to 28.7 µM
# In short: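 First compound was added to culture medium, then infected red cells at 0.1% parasitemia and 2% hematocrit (final). After incubation at 37 C under 5% CO2, luciferase detection reagent was dispensed and light output recorded.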
# Potency means the concentration at half of the fitted maximal effect; tags describe the fitted curve by direction and shape.
row,Structure (SMILES),Potency
1,CCN1CCN(Cc2ccccc2NC(=O)Nc2ccc(C)cc2)CC1,inactive
2,CN(C)S(=O)(=O)c1ccc(NC(=O)N2CCN(c3cccc(C(F)(F)F)c3)CC2)cc1,active: 11.7 µM
3,N#CC[C@H](Cc1ccccc1)N1CCN(CCc2ccccc2)CCC1=O,inactive
4,N#C/C(=C\c1ccccc1O)C(=O)Nc1cccnc1,"inconclusive [inhibitor, single point]"
5,CN1CCN(C(=O)c2cc3c(s2)-c2ccccc2S(=O)(=O)C3)CC1,inactive
6,COCCCn1[nH]c2c3c(ccc2c1=O)C(=O)c1ccccc1C3=O,active: 11.7 µM
7,CC(Oc1ccc2c(c1)c1ccnc3c4ccccc4c(=O)n2c13)C(=O)NCCN1CCOCC1 (stereo unspecified),active: 4.65 µM
8,COc1ccccc1CC(=O)Nc1ccc(S(=O)(=O)N(C)C2CCN(C)CC2)cc1,"inconclusive [inhibitor, partial curve]"
9,CC(NC(=O)CCl)c1ccccc1Br (stereo unspecified),active: 1.47 µM
10,S=C(NCCN1CCCCC1)Nc1ccccc1,inactive
11,CN(C)c1cccc(C(=O)N(C)C2CCCN(Cc3ccccc3F)C2)c1 (stereo unspecified),"inconclusive [inhibitor, single point]"
12,COc1ccc(NC(=O)CCN2CCN(S(=O)(=O)c3ccc(Br)cc3)CC2)cc1,"inconclusive [inhibitor, partial curve, poor fit]"
13,CC(C)C(=O)NC(=S)Nc1ccccc1N1CCN(C(=O)c2ccc(Cl)cc2)CC1,active: 1.47 µM
14,CCOC(=O)c1sc(N(Cc2ccccc2)C(=O)CN2C(=O)CN(C)C2=O)nc1C,"inconclusive [inhibitor, single point]"
15,COc1cnc(-c2ccccn2)nc1Sc1ccccc1Cl,"inconclusive [inhibitor, full curve]"
16,CC(C)=CC1C(C(=O)Nc2ccc(S(=O)(=O)N3CCOCC3)cc2)C1(C)C (stereo unspecified),"inconclusive [inhibitor, partial curve]"
17,Cn1c(=O)c2c(nc(CN3CCN(C(=O)c4ccco4)CC3)n2Cc2ccc(Cl)cc2)n(C)c1=O,active: 7.38 µM
18,CC(C)CN(CC(C)C)C1=N/C(=C\c2ccco2)C(=O)N1c1ccccc1,"inconclusive [inhibitor, full curve, poor fit]"
19,NC(=O)COc1ccccc1C(=O)NC12CC3CC(CC(C3)C1)C2,inactive
20,CCn1c(SCC(=O)c2c[nH]c3ccccc23)nc2cc(S(=O)(=O)N3CCOCC3)ccc21,active: 9.28 µM
21,O=C(CCCN1C(=O)/C(=C/c2ccccc2)SC1=S)Nc1ccccc1O,inactive
22,CCc1ccc(CNC(=O)CC2C(=O)NCCN2Cc2ccccc2F)nc1 (stereo unspecified),"inconclusive [inhibitor, single point]"
23,O=C(Nc1ccc2c(c1)OCO2)C1CCN(S(=O)(=O)c2cccc3cccnc23)CC1,"inconclusive [inhibitor, single point]"
24,O=C(Oc1c(CN2CCOCC2)cc(Cl)c2cccnc12)c1ccccc1Br,active: 1.85 µM

row,Structure (SMILES),Potency
1,CCOc1ccc(-c2cccc(NS(=O)(=O)c3cc([N+](=O)[O-])ccc3Cl)c2)nn1,"inconclusive [inhibitor, single point]"
2,c1ccc(CNc2c3c(nc4ccccc24)CCC3)cc1,"inconclusive [inhibitor, full curve]"
3,COC(=O)[C@@]12CCCCN1[C@H](c1ccc(-c3cc(C(C)=O)cs3)c(OC)c1)[C@H]1C(=O)N(C)C(=O)[C@H]12,active: 4.15 µM
4,Cc1ccc(OS(=O)(=O)c2c(C)nn(C)c2Cl)c(C)c1,"inconclusive [inhibitor, full curve, poor fit]"
5,CN1C(=O)C(C)(C)c2cc(S(=O)(=O)NCC3CCC(C(=O)NCc4ccccc4)CC3)ccc21 (stereo unspecified),inactive
6,COc1ccc(CNC(=O)CCc2ccc(S(=O)(=O)N3CCCCCC3)cc2)cc1,"inconclusive [inhibitor, single point]"
7,CCOC(=O)c1ccc(N2C(=O)CC(SCC(N)C(=O)OCC)C2=O)cc1 (stereo unspecified),active: 10.4 µM
8,CN(CCOc1ccccc1)C(=O)c1cc([N+](=O)[O-])cc([N+](=O)[O-])c1,"inconclusive [inhibitor, single point]"
9,COc1ccc(OCCOC(=O)c2ccc(F)c(S(=O)(=O)N3CCOCC3)c2)cc1,"inconclusive [inhibitor, single point]"
10,Cc1cc(C)cc(CSc2ccc(S(=O)(=O)N3CCCC3)cn2)c1,active: 9.28 µM
11,CCc1cccc(C)c1NC(=S)N(CCN(C)C)C(C)c1cccnc1 (stereo unspecified),inactive
12,COc1ccc(CC(=O)Nc2cccc(S(=O)(=O)N3CCCCC3)c2)cc1,"inconclusive [inhibitor, single point]"
13,CCC1CCCN1Cn1cnc2c([nH]c3ccccc32)c1=O (stereo unspecified),"inconclusive [inhibitor, full curve, poor fit]"
14,COc1cccc(CNS(=O)(=O)c2ccc3c(c2)CC(C)N3C(=O)C2CCC2)c1 (stereo unspecified),inactive
15,COc1ccc(N2CCN(C(=O)Cn3c(=O)c4cccn4c4cccnc43)CC2)cc1,inactive
16,CCc1ccc(S(=O)(=O)Nc2ccc(N3CCN(C)CC3)cc2)cc1,"inconclusive [inhibitor, single point]"
17,C[n+]1ccn(CC(=O)c2ccc(Br)cc2)c1,active: 11.7 µM
18,O=C(c1cc2nc(-c3cccs3)cc(C(F)(F)F)n2n1)N1CCCc2ccccc21,"inconclusive [inhibitor, single point]"
19,C/C(=N\NC(=O)c1ccccc1)c1cc2cc([N+](=O)[O-])ccc2oc1=O,"inconclusive [inhibitor, single point]"
20,Cn1c(-c2cc(Cl)ccc2O)nc2c1c(=O)[nH]c(=O)n2Cc1ccccc1,"inconclusive [inhibitor, single point]"
21,COc1ccccc1N1CCN(C(=O)c2ccc(CN3CCOCC3)cc2)CC1,inactive
22,CCCCOc1cccc(C(=O)N(Cc2cccs2)C2CCS(=O)(=O)C2)c1 (stereo unspecified),"inconclusive [inhibitor, single point]"
23,COc1ccc(C)cc1NC(=O)C(NCC(O)c1ccccc1)c1ccccc1 (stereo unspecified),"inconclusive [inhibitor, single point]"
24,O=C(NCC1CCCO1)C(c1cccs1)N(C(=O)Cn1nnc(-c2cccs2)n1)C1CCCC1 (stereo unspecified),"inconclusive [inhibitor, single point]"

row,Structure (SMILES),Potency
1,O=C(NC(=S)Nc1ccccn1)c1cc(-c2ccccc2)nc2ccccc12,inactive
2,Cc1nnc(SCC(=O)N2CC(=O)Nc3ccccc32)n1-c1ccccc1,inactive
3,COC(=O)c1ccc(NC(=O)COc2ccc3c(c2)OCO3)cc1,"inconclusive [inhibitor, full curve, poor fit]"
4,Cc1ccc2nc(N3CCN(C=O)CC3)nc(-c3ccccc3)c2c1,"inconclusive [inhibitor, single point]"
5,COc1cc(CN2CCC(C(=O)NC3CCCC3)CC2)cc(Br)c1O,"inconclusive [inhibitor, single point]"
6,CCOc1ccccc1NC(=O)[C@@H](NC(=O)c1cccc(S(=O)(=O)N2CCOCC2)c1)C(C)C,active: 13.1 µM
7,COc1ccc(C(C)(C)C)cc1NC(=O)CCN1C(=O)C2CCCCC2C1=O (stereo unspecified),"inconclusive [inhibitor, single point]"
8,CCOC(=O)c1c(C)c(C(=O)NCc2ccccc2OC)c(C)n1C,"inconclusive [inhibitor, single point]"
9,Brc1ccccc1-n1nnc(-c2nccs2)n1,inactive
10,CCN(CC)CC(=O)Nc1ccccc1SCC(=O)Nc1ccsc1C(=O)OC,"inconclusive [inhibitor, partial curve, poor fit]"
11,CSc1nc(SCC(=O)O)c2c3c(sc2n1)COC(C)(C)C3,inactive
12,CC(C)Cc1nnc(NC(=O)C2=COCCO2)s1,inactive
13,Cc1ccc(C(=O)N2CCn3c(C)ccc3C2C)cc1 (stereo unspecified),"inconclusive [inhibitor, single point]"
14,COc1cc(CNS(=O)(=O)c2ccc3c(c2)CC(C)N3C(C)=O)cc(OC)c1OC (stereo unspecified),"inconclusive [inhibitor, partial curve, poor fit]"
15,O=C(O)COc1ccccc1/C=N/NC(=O)CSc1nc2ccccc2s1,inactive
16,COc1ccc(-c2csc(NC(=O)c3cccc(S(=O)(=O)N4CCN(C)CC4)c3)n2)cc1,"inconclusive [inhibitor, single point]"
17,Cc1nc([N+](=O)[O-])cn1Cc1cccc2ccccc12,active: 10.4 µM
18,CC(C)(C)c1cccc(C2(O)C(=O)c3ccccc3C2=O)c1O,"inconclusive [inhibitor, single point]"
19,COc1ccc(Cl)cc1NC(=O)c1cc(-c2cc(C)ccc2O)n[nH]1,active: 1.85 µM
20,CCOc1ccc2nc(SCC(=O)NC3CCCc4ccccc43)sc2c1 (stereo unspecified),"inconclusive [inhibitor, single point]"
21,CCOc1ccc(NC(=O)COC(=O)c2ccc3c(c2)C(=O)N(CCc2ccccc2)C3=O)cc1,"inconclusive [inhibitor, partial curve, poor fit]"
22,COc1cccc(Nc2cc(C)nc3ccccc23)c1,"inconclusive [inhibitor, single point]"
23,CCN1CCN(C(=S)Nc2ccc3nc(N4CCN(CC)CC4)cc(C)c3c2)CC1,active: 6.57 µM
